# Experimental data as given in the supplement of paper PMC4967469.
# Lines with a small IC50 respond at low doses; a fit beyond the top or the lowest dose is shown as a bound at that dose. AUC is the area under the same curve over the 256-fold range up to the top dose, as a fraction: 1 means no effect, lower means more sensitive. For some assays here: Any top dose called inferred was calculated from the reported fits. For some assays here: Drugs with an entry number were screened twice under separate entries, and the two screens often disagree.
# Key:
# PAC-1 = compound: C=CCc1cccc(/C=N/NC(=O)CN2CCN(Cc3ccccc3)CC2)c1O [PAC-1]; test: Viability of human cancer cell lines after 72 h of drug (GDSC screen); settings: top dose 2.56 µM
# Procedure: (§1)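 Human cancer cell lines in 384-well plates, medium with 10% serum, drug for 72 h over a 256-fold dose range (nine 2-fold or five 4-fold steps up to the top dose). Adherent lines were fixed and stained with the nucleic acid dye Syto60, suspension lines read with resazurin; signal relative to control wells, capped at 0 and 100%. One two-parameter sigmoid per drug and line, fitted in a mixed model over all curves with the slope shared within a line.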
# BMS-708163 = compound: NC(=O)[C@@H](CCC(F)(F)F)N(Cc1ccc(-c2ncon2)cc1F)S(=O)(=O)c1ccc(Cl)cc1 [BMS-708163]; test: as above; settings: top dose 5 µM; screen: GDSC drug entry 1072; top dose inferred
# Procedure: as §1
Cell Line,AUC (PAC-1),IC50 (PAC-1) [µM],AUC (BMS-708163),IC50 (BMS-708163) [µM]
"TOV-21G (ovary, adherent)",0.984,> 2.56,0.948,> 5
"WM1552C (melanoma, adherent)",0.904,> 2.56,0.978,> 5
"AGS (stomach, adherent)",0.983,> 2.56,0.984,> 5
"SAS (head and neck, adherent)",0.982,> 2.56,0.89,> 5
"PCI-6A (head and neck, adherent)",0.938,> 2.56,0.943,> 5
"ESS-1 (endometrium, adherent)",0.944,> 2.56,0.972,> 5
"BFTC-905 (bladder, adherent)",0.947,> 2.56,0.963,> 5
"RO82-W-1 (thyroid, adherent)",0.935,> 2.56,0.973,> 5
"PCI-15A (head and neck, adherent)",0.945,> 2.56,0.986,> 5
"A704 (kidney, adherent)",0.916,> 2.56,0.966,> 5
"SNU-423 (liver, adherent)",0.882,> 2.56,0.967,> 5
"DOK (head and neck, adherent)",0.96,> 2.56,0.913,> 5
"A673 (rhabdomyosarcoma, adherent)",0.989,> 2.56,0.958,> 5
"HCC1569 (breast, adherent)",0.872,> 2.56,0.914,> 5
"BHT-101 (thyroid, adherent)",0.966,> 2.56,0.912,> 5
"EPLC-272H (lung squamous cell carcinoma, adherent)",0.956,> 2.56,0.943,> 5
"P12-ICHIKAWA (T-cell lymphoblastic leukaemia, suspension)",0.853,1.34,0.994,> 5
"RD (rhabdomyosarcoma, adherent)",0.985,> 2.56,0.912,> 5
"NCI-H1944 (lung adenocarcinoma, adherent)",0.948,> 2.56,0.944,> 5
"CS1 (bone, adherent)",0.96,> 2.56,0.926,> 5
"MDA-MB-415 (breast, adherent)",0.982,> 2.56,0.942,> 5
"CHSA8926 (chondrosarcoma, adherent)",0.911,> 2.56,0.964,> 5
"OVMIU (ovary, adherent)",0.855,> 2.56,0.889,> 5
"MDA-MB-231 (breast, adherent)",0.982,> 2.56,0.982,> 5
"RERF-LC-Sq1 (lung squamous cell carcinoma, adherent)",0.965,> 2.56,0.921,> 5

Cell Line,AUC (PAC-1),IC50 (PAC-1) [µM],AUC (BMS-708163),IC50 (BMS-708163) [µM]
"JHH-6 (liver, adherent)",0.987,> 2.56,0.983,> 5
"NCI-H1792 (lung adenocarcinoma, adherent)",0.972,> 2.56,0.903,> 5
"SK-MEL-24 (melanoma, adherent)",0.982,> 2.56,0.968,> 5
"SNG-M (endometrium, adherent)",0.824,1.48,0.947,> 5
"KYM-1 (rhabdomyosarcoma, adherent)",0.99,> 2.56,0.991,> 5
"KP-1N (pancreas, adherent)",0.863,2.39,0.984,> 5
"NCI-H1437 (lung adenocarcinoma, adherent)",0.865,2.42,0.985,> 5
"NCI-H650 (lung adenocarcinoma, adherent)",0.863,> 2.56,0.964,> 5
"FU97 (stomach, adherent)",0.954,> 2.56,0.972,> 5
"Hs766T (pancreas, adherent)",0.974,> 2.56,0.98,> 5
"HMV-II (melanoma, adherent)",0.854,> 2.56,0.982,> 5
"KYSE-150 (oesophagus, adherent)",0.893,> 2.56,0.935,> 5
"HT-115 (large intestine, adherent)",0.972,> 2.56,0.978,> 5
"RCM-1 (large intestine, adherent)",0.979,> 2.56,0.929,> 5
"SCC90 (head and neck, adherent)",0.928,> 2.56,0.959,> 5
"LN-405 (glioma, adherent)",0.979,> 2.56,0.913,> 5
"PA-1 (ovary, adherent)",0.988,> 2.56,0.993,> 5
"EBC-1 (lung squamous cell carcinoma, adherent)",0.978,> 2.56,0.954,> 5
"SNU-398 (liver, adherent)",0.973,> 2.56,0.949,> 5
"SK-OV-3 (ovary, adherent)",0.789,1.46,0.981,> 5
"TGBC24TKB (biliary tract, adherent)",0.932,> 2.56,0.949,> 5
"SBC-5 (small cell lung carcinoma, adherent)",0.993,> 2.56,0.932,> 5
"HCC-15 (lung squamous cell carcinoma, adherent)",0.982,> 2.56,0.979,> 5
"CAPAN-1 (pancreas, adherent)",0.936,> 2.56,0.833,3.75
"H2595 (mesothelioma, adherent)",0.928,> 2.56,0.98,> 5

Cell Line,AUC (PAC-1),IC50 (PAC-1) [µM],AUC (BMS-708163),IC50 (BMS-708163) [µM]
"KLE (endometrium, adherent)",0.954,> 2.56,0.956,> 5
"JIMT-1 (breast, adherent)",0.978,> 2.56,0.983,> 5
"Hs-578-T (breast, adherent)",0.987,> 2.56,0.987,> 5
"UACC-62 (melanoma, adherent)",0.986,> 2.56,0.91,> 5
"COR-L23 (large cell lung carcinoma, adherent)",0.944,> 2.56,0.914,> 5
"ChaGo-K-1 (non-small cell lung carcinoma, adherent)",0.934,> 2.56,0.985,> 5
"COLO-783 (melanoma, adherent)",0.967,> 2.56,0.988,> 5
"Hs683 (glioma, adherent)",0.865,2.31,0.988,> 5
"CAL-39 (cervix, adherent)",0.973,> 2.56,0.958,> 5
"IGR-1 (melanoma, adherent)",0.943,> 2.56,0.665,0.842
"Capan-2 (pancreas, adherent)",0.879,> 2.56,0.972,> 5
"NCI-H2122 (lung adenocarcinoma, adherent)",0.914,> 2.56,0.944,> 5
"VMRC-RCZ (kidney, adherent)",0.925,> 2.56,0.912,> 5
"GP5d (large intestine, adherent)",0.989,> 2.56,0.991,> 5
"NCI-H841 (small cell lung carcinoma, adherent)",0.984,> 2.56,0.986,> 5
"SJRH30 (rhabdomyosarcoma, adherent)",0.868,2.47,0.985,> 5
"NUGC-3 (stomach, adherent)",0.909,> 2.56,0.909,> 5
"NCI-H2405 (lung adenocarcinoma, adherent)",0.948,> 2.56,0.916,> 5
"ABC-1 (lung adenocarcinoma, adherent)",0.974,> 2.56,0.975,> 5
"639-V (bladder, adherent)",0.991,> 2.56,0.992,> 5
"KON (head and neck, adherent)",0.975,> 2.56,0.985,> 5
"EW-7 (Ewing sarcoma, semi-adherent)",0.9,> 2.56,0.989,> 5
"NCI-H727 (lung carcinoid, adherent)",0.772,1.75,0.964,> 5
"HPAF-II (pancreas, adherent)",0.98,> 2.56,0.894,> 5
"T47D (breast, adherent)",0.955,> 2.56,0.92,> 5

Cell Line,AUC (PAC-1),IC50 (PAC-1) [µM],AUC (BMS-708163),IC50 (BMS-708163) [µM]
"MCF7 (breast, adherent)",0.92,> 2.56,0.964,> 5
"DU-145 (prostate, adherent)",0.982,> 2.56,0.973,> 5
"HCT-15 (large intestine, adherent)",0.827,1.7,0.967,> 5
"T-24 (bladder, adherent)",0.986,> 2.56,0.948,> 5
"MEL-JUSO (melanoma, adherent)",0.854,2.41,0.935,> 5
"MES-SA (uterus, adherent)",0.976,> 2.56,0.93,> 5
"CAL-78 (chondrosarcoma, adherent)",0.983,> 2.56,0.984,> 5
"647-V (bladder, adherent)",0.955,> 2.56,0.983,> 5
"CAKI-1 (kidney, adherent)",0.88,> 2.56,0.943,> 5
"GMS-10 (glioma, adherent)",0.988,> 2.56,0.943,> 5
"HTC-C3 (thyroid, adherent)",0.901,> 2.56,0.966,> 5
"SCC-25 (head and neck, adherent)",0.941,> 2.56,0.909,> 5
"H2818 (mesothelioma, adherent)",0.95,> 2.56,0.954,> 5
"KMRC-20 (kidney, adherent)",0.988,> 2.56,0.983,> 5
"T84 (large intestine, adherent)",0.805,1.32,0.949,> 5
"G-402 (soft tissue, adherent)",0.934,> 2.56,0.939,> 5
"SK-LU-1 (lung adenocarcinoma, adherent)",0.947,> 2.56,0.917,> 5
"PC-3 [JPC-3] (lung adenocarcinoma, adherent)",0.981,> 2.56,0.975,> 5
"HGC-27 (stomach, adherent)",0.976,> 2.56,0.973,> 5
"KMH-2 (thyroid, adherent)",0.925,> 2.56,0.985,> 5
"5637 (bladder, adherent)",0.948,> 2.56,0.986,> 5
"SF295 (glioma, adherent)",0.915,> 2.56,0.984,> 5
"H2869 (mesothelioma, adherent)",0.942,> 2.56,0.984,> 5
